Assay results: PubChem BioAssay AID757 (NMMLSC, 2007)
About 520 (0.27%) of roughly 190,000 compounds were called active. The shares of active, inactive and inconclusive entries below differ from those in the screen.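 Rule for the calls: active = GTP binding activity at least 20 points away from the 100% control level, either lower or higher; inconclusive = compound flagged as likely green fluorescent, judged across all proteins; inactive = the rest.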

biological target: Ras-related C3 botulinum toxin substrate 1 (Homo sapiens) (UniProt P63000); assay: wildtype Rac1 GTP binding modulators, primary screen, biochemical, GST-Rac1 beads, flow cytometry, multiplex (AID 757); settings: fluorescent GTP binding, at 10 µM, actives lie on both sides, 0 = cold GTP competed, 100 = untreated

| SMILES | GTP binding activity (% of control) |
| --- | --- |
| CCOC(=O)c1[nH]c(C)c(CN(CCc2ccc(OC)c(OC)c2)C(=O)CCCC(=O)O)c1C | inconclusive: 107% |
| COC(=O)c1ccccc1NC(=S)NC(NC(=O)COc1ccccc1)C(Cl)(Cl)Cl (configuration not stated) | inconclusive: 109% |
| Cn1nc(C(=O)Nc2nnc(C3CC3)s2)c2ccccc2c1=O | inconclusive: 91% |
| Cc1ccc(S(=O)(=O)c2c(N)n(CCCO)c3nc4ccccc4nc23)cc1 | inconclusive: 84% |
| CCOC(=O)Nc1nnc(-c2cccc(OC)c2)s1 | inconclusive: 103% |
| Cc1ccc(NCc2nnc(SC(C)C(=O)N/N=C/c3ccc(C)o3)n2-c2ccccc2)cc1 (configuration not stated) | inconclusive: 103% |
| O=C1CC(N2CCOCC2)C(=O)N1CCc1ccccc1 (configuration not stated) | inconclusive: 107% |
| CCOC(=O)CN(C(=O)CSc1nnc2c(n1)[nH]c1ccc(F)cc12)c1ccccc1 | inconclusive: 92% |
| CCOC(=O)c1sc(NC(=O)C(C)Sc2nc(N)cc(=O)[nH]2)nc1C (configuration not stated) | inactive: 97% |
| CS(=O)(=O)N1CCC(C(=O)O)CC1 | inconclusive: 109% |
| Clc1ccccc1-c1ccc(CN2CCN(c3ccccc3)CC2)o1 | inconclusive: 93% |
| Cc1ccccc1NC(=O)Cn1nc(-c2ccccc2)nc1-c1ccccc1 | inconclusive: 106% |
| COc1ccc(NC(=O)c2cc(-c3ccccc3)oc2C)cc1 | inconclusive: 97% |
| CCN(C(=O)Cn1c(=O)oc2ccccc21)c1cccc(C(F)(F)F)c1 | inconclusive: 105% |
| C#CCOC(=O)C[N+](C)(C)CC#Cc1ccccc1 | inactive: 100% |
| Cc1nn(C)c(C)c1S(=O)(=O)N(CC(=O)NCc1cccs1)c1ccc(C(C)C)cc1 | inactive: 102% |
| CCCCN(C)C1=CC2=CC(=C(C#N)C#N)CCC2CC1 (configuration not stated) | inconclusive: 116% |
| CCC(C)Nc1nc(OCC(F)(F)F)nc(OCC(F)(F)F)n1 (configuration not stated) | inconclusive: 103% |
| COc1ccc(N(C(=O)c2ccc(F)cc2)C2=CC3CCC(C2)N3C)cc1 (configuration not stated) | inconclusive: 106% |
| CC(=O)NCC1CCCN(c2nc3nonc3nc2N(C)Cc2ccccc2)C1 (configuration not stated) | inconclusive: 97% |
| Cc1[nH]c(=S)c(C#N)c(-c2ccco2)c1C(=O)N(C)C | inactive: 99% |
| Cc1nn(-c2ccccc2)c(C)c1C(=O)OCC(=O)N(C)C1CCS(=O)(=O)C1 (configuration not stated) | inconclusive: 91% |
| Cc1c(C(=O)N2CCOCC2)[nH]c2c1C(=O)CC(c1ccccc1Cl)C2 (configuration not stated) | inconclusive: 92% |

| SMILES | GTP binding activity (% of control) |
| --- | --- |
| O=C(O)c1ccc(N2C(=O)CC(SC(=NCc3ccc4c(c3)OCO4)Nc3ccc(F)cc3)C2=O)cc1 (configuration not stated) | inconclusive: 89% |
| COc1ccc(CCNC(=O)CSc2nc3[nH]ncc3c(=O)n2-c2ccccc2OC)cc1OC | inconclusive: 93% |
| C=CCn1c(-c2cccs2)nc2nc3ccccc3nc21 | inconclusive: 95% |
| CCOC(=O)C1CCN(C(=O)CCc2ccccc2)CC1 | inconclusive: 100% |
| Cc1cc(N)nc2nc(C(F)(F)F)nn12 | inactive: 98% |
| CCOc1ccc(-c2nn(-c3ccccc3)cc2/C=C(\C#N)S(=O)(=O)c2ccccc2)cc1C | inactive: 108% |
| Cc1ccc(C2NC(=S)NC3=C2N2CCC3CC2)cc1 (configuration not stated) | inconclusive: 107% |
| Cc1cccc(C)c1NC(=O)CSc1ccc([N+](=O)[O-])cn1 | inconclusive: 166% |
| Cc1cc(C(F)(F)F)nn1Cc1n[nH]c(=S)n1-c1cccc(Cl)c1 | inconclusive: 95% |
| CN(C)/C=N/c1nc2nccc(-c3ccccc3)n2n1 | inactive: 94% |
| O=C(CCC(=O)Nc1ccc(F)cc1)N/N=C/c1c[nH]c2ccccc12 | inconclusive: 97% |
| Cc1ccc(S(=O)(=O)N(C)CCCC(=O)Nc2cc(C)ccc2C)cc1 | inactive: 108% |
| Cc1ccc2ncccc2c1NC(=S)NC(=O)c1ccccc1 | inactive: 94% |
| O=C(Nc1cccc(O)c1)c1ccccc1 | inactive: 102% |
| Cc1ccc(S(=O)(=O)N2CCC(NC(=O)c3cccc(C)c3)CC2)cc1 | inactive: 98% |
| Cc1c(/C=C/C(=O)c2ccc(C(C)C)cc2)cnn1C | inconclusive: 94% |
| CCOC(=O)C1CCN(CCC(=O)Nc2cccc(Cl)c2)CC1 | inconclusive: 106% |
| Cc1ccc(N2CC(C(=O)Nc3ccccn3)CC2=O)cc1 (configuration not stated) | inconclusive: 108% |
| CCOC(=O)c1cccc(NC(=O)CCn2nnc3ccccc32)c1 | inconclusive: 106% |
| CCSc1ccc2nnc(-c3cccs3)n2n1 | inconclusive: 88% |
| CCOC(=O)c1ccc(NC(=S)NCCc2ccc(F)cc2)cc1 | inactive: 96% |
| COc1ccccc1NC(=O)CSc1nnc(COc2ccccc2OC)n1C | inactive: 98% |
| O=c1[nH]c(=O)c2ncc(-c3ccc(Cl)cc3)nc2[nH]1 | inconclusive: 88% |

| SMILES | GTP binding activity (% of control) |
| --- | --- |
| CC(=O)Oc1ccc2c(c1)Oc1cc(OC(C)=O)ccc1C21OC(=O)c2ccccc21 | inconclusive: 384% |
| COc1ccc2nc(NNC(=O)c3cc(=O)c4ccccc4o3)sc2c1 | inactive: 90% |
| Cc1ccc2c(c1)SC1=NC(c3ccccc3)(C(F)(F)F)NC(=O)N12 (configuration not stated) | inconclusive: 93% |
| COc1cc(NC2c3ccccc3C(=O)N2c2ccc(C)cn2)cc(OC)c1OC (configuration not stated) | inactive: 107% |
| COC(=O)c1ccc(C2C(Oc3ccc(OC)cc3)C(=O)N2CCc2ccc(OC)c(OC)c2)cc1 (configuration not stated) | inconclusive: 106% |
| CC1CCN(S(=O)(=O)N2CCC(C(=O)NCCN3CCOCC3)CC2)CC1 | inconclusive: 89% |
| COC(=O)C1C(=O)C2=C(CC1C)NC(=O)CC2c1ccc(O)c(OC)c1 (configuration not stated) | inactive: 107% |
| O=C(NCc1ccco1)c1ccc(-c2ccccc2Cl)o1 | inconclusive: 89% |
| CCC(c1nnnn1CS(=O)(=O)c1ccc(C)cc1)N1CCN(c2nc3ccccc3s2)CC1 (configuration not stated) | inconclusive: 104% |
| COCCCN1CN(S(=O)(=O)c2ccc(Cl)cc2)c2nc3ccccc3nc21 | inconclusive: 105% |
| N#C/C(=C/c1ccc(N2CCCCC2)o1)C(=O)Nc1ccc2ccccc2c1 | inconclusive: 173% |
| Cc1ccc([N+](=O)[O-])cc1S(=O)(=O)n1ccnc1C | inactive: 100% |
| O=C(O)/C=C/c1cn(Cc2ccccc2)nc1-c1cccs1 | active: 157% [activator] |
| CCOC(=O)c1cnc(SCc2ccc(C)cc2)nc1N | active: 120% [activator] |
| O=C(COc1ccccc1-c1ccccc1)N/N=C/c1ccncc1 | active: 55% |
| Cc1ccc(C)c(NS(=O)(=O)c2cc(C(=O)Nc3ccccc3-c3ccccc3)ccc2C)c1 | inconclusive: 108% |
| O=C(CSc1ccc2nnc(-c3cccc(F)c3)n2n1)N1CCCc2ccccc21 | active: 79% |
| CCn1cc(C2=NOC(C(=O)Nc3cccc(C(C)=O)c3)C2)c(C)n1 (configuration not stated) | inconclusive: 107% |
| CCOCCc1nnc(NC(=O)c2cccc(F)c2)s1 | inconclusive: 105% |
| CCN(CC)S(=O)(=O)c1ccc(C(=O)NC(C)(C)C)cc1 | inconclusive: 94% |
| CCOC(=O)c1sc(Nc2nc3c(OC)cccc3s2)nc1C | inconclusive: 90% |
| Cc1nc2ccccn2c1-c1csc(Nc2cccc(O)c2)n1 | active: 75% |
| CCOC(=O)C1(Cc2cccc(OC)c2)CCN(Cc2ccc(C)s2)CC1 | inactive: 96% |

| SMILES | GTP binding activity (% of control) |
| --- | --- |
| Cc1cccc(S(=O)(=O)Nc2ccc(-c3cn4ccccc4n3)cc2)c1 | inconclusive: 95% |
| CCOC(=O)C1CCN(CCC(=O)Nc2cccc(C)c2)CC1 | inconclusive: 99% |
| CC(=O)Nc1ccc(NC(=O)C(OC(=O)c2ccccc2)C(OC(=O)c2ccccc2)C(=O)O)cc1 (configuration not stated) | inactive: 98% |
| COc1cc(N2CCCC2)c(OC)cc1/C=C(/C#N)c1ccc(Br)cc1 | inconclusive: 156% |
| CCOC(=O)C1CCCN(C(=O)c2cc3cc(Br)ccc3oc2=O)C1 (configuration not stated) | inconclusive: 96% |
| CCN(CC(=O)Nc1sc2c(c1C#N)CCCC2)CC(=O)NC1CCS(=O)(=O)C1 (configuration not stated) | inconclusive: 94% |
| Nc1cc(C(=O)O)ccc1Sc1ccccc1C(=O)O | inactive: 97% |
| COc1ccccc1/C=C/C=N/NC(=O)c1ccc2nc[nH]c2c1 | inactive: 99% |
| C#CCNC(=O)C1=C[C@@H](C2CCCCC2)C[C@@H](OCCCCO)O1 | inactive: 95% |
| COc1cc(C(=O)O)c2ccccc2n1 | inactive: 101% |
| Cn1c(SCC(=O)N2CCN(c3ccccc3)CC2)nnc1-c1cc2ccccc2o1 | inconclusive: 93% |
| O=C(Nc1cc2cc([N+](=O)[O-])ccc2oc1=O)c1cccs1 | inactive: 95% |
| c1ccc(-c2nnc(OCc3cccnc3)c3ccccc23)cc1 | inconclusive: 96% |
| CC(=O)[C@@H]1[C@@H]2C(=O)N(C3CCCCC3)C(=O)[C@@H]2C2c3ccccc3C=CN21 (some centres not stated) | inconclusive: 104% |
| O=C(c1ccc(N2CCOCC2)c([N+](=O)[O-])c1)N1CCN(S(=O)(=O)c2cccs2)CC1 | inactive: 96% |
| COc1cccc(-n2nnc3c(=O)n(Cc4ccc(C)cc4)cnc32)c1 | inconclusive: 97% |
| CO/N=C(/CS(=O)(=O)Cc1ccccc1Cl)c1ccc(Cl)cc1Cl | inconclusive: 104% |
| O=C(CSc1cccc(C(F)(F)F)c1)NC(=O)c1ccccc1 | inconclusive: 104% |
| O=[N+]([O-])c1ccccc1CN1CCN(Cc2ccccn2)CC1 | inconclusive: 90% |
| COc1ccc(CNC(=O)c2cc3c(C)nc4ccccc4c3o2)c(OC)c1 | inconclusive: 100% |
| O=C(/C(=C/c1ccccc1)c1ccccc1)N1CCCCC1 | inconclusive: 110% |
| COc1cccc(/C=C2\SC(=S)N(c3cccnc3)C2=O)c1OC | inconclusive: 94% |
| CCOC(=O)c1cc(C(=O)OCC)c(=O)[nH]c1C | inactive: 111% |
